# Data taken from ChEMBL document CHEMBL4888484, “Replenishing the malaria drug discovery pipeline: Screening and hit evaluation of the MMV Hit Generation Library 1 (HGL1) against asexual blood stage Plasmodium falciparum ,using a nano luciferase reporter read-out” (2022).
# In all, about 150,000 compounds went through this assay and about 540 (0.36%) showed an effect of 50% or more. The list shows a part of the results.
# Test system: Plasmodium falciparum
# Experiment: Primary screen in NF54 nanoGlo assay, in single point, at 2uM, 72h; a lower Z score goes with more inhibition
# Assay type: functional, Erythrocyte
# Settings: timepoint 72 hour
Structure (SMILES),% Inhibition [%],Z score
COc1ccc(-n2nnnc2C2(NCc3ccccc3)CCCC2)cc1OC,-11,1.53
COc1ccc(Cl)cc1C(=O)N[C@H]1CCc2n[nH]c(=O)n2CC1,-11,1.67
CC#CC(=O)NC[C@@](C)(C(=O)OC)c1ccccc1F,-12,1.37
Cc1nc2c(c(NC(=O)Cc3ccccc3)nn2C)c(C)c1Cl,-8,0.76
CCN1C(=O)COc2ccc(NC(=O)N[C@@H]3CCc4ccccc43)cc21,0,-0.04
O=C(c1cnc2nccn2c1)N1CC[C@@H]2CCC[C@@H]21,5,-0.55
O=C(Nc1ccccc1O)c1cc(S(=O)(=O)N2CCCCC2)cs1,-35,3.19
Cc1cc(OCCCS(=O)(=O)C(C)C)nn1C,-5,0.56
CCC1CN(Cc2cnoc2C)C(CC)CN1Cc1cnoc1C (stereo unspecified),5,-0.58
COCCn1c(CCCC(=O)Nc2ccc(NC(C)=O)cc2)nc2cccnc21,-14,1.78
C[C@H](NCc1ccc(S(C)(=O)=O)s1)C(C)(C)C(F)F,-24,4.85
CC(C)n1cnnc1CCNC(=O)N1CCCC[C@H]1c1ccc(F)cc1,-9,1.52
Cc1ccc(Oc2nc(N3CCC(C)CC3)nc3c2CN(Cc2cccc(C(F)(F)F)c2)CC3)cc1,-11,1.46
O=C1CCCC[C@@H](C(=O)NCc2ccco2)N1,-1,0.16
CC(C)(C)[C@@H]1CCCN1C(=O)c1cc(=O)[nH]c(C2CC2)n1,27,-3.09
O=C(NC1CCCCC1)N(CCN1CCCCC1)C1CCOCC1,-5,0.81
O=C(Nc1cccc(CNC(=O)C2(c3ccc(Br)cc3)CCCC2)c1)N1CCCC1,-3,0.41
O=C(Cn1nc2ccc(C(=O)NCc3ccccc3)cn2c1=O)NCc1ccc(Cl)cc1,-9,0.77
O=C(c1ccoc1C1CC1)N1C[C@@H](CO)Cc2cccc(F)c21,-8,1.01
CN1C(=O)[C@@]2(c3ccccc31)N(c1cccc(Cl)c1)C(=O)CS2(=O)=O,-19,1.87
COc1c(F)cc(S(=O)(=O)N2CCn3nccc32)cc1F,8,-1.24

Structure (SMILES),% Inhibition [%],Z score
Cn1c(-c2ccncc2)nc2cc(C(=O)O)cc(NC(=O)C3CCC3)c21,-12,1.68
CC[C@H](C)OCC(=O)N1CCC(O)(COC)CC1,-3,0.37
COc1ccc2c(c1)CC[C@H](NCc1ccc(N3CCCC3=O)cc1)C2,-13,2.21
COCCN(Cc1ccc(OC)c(OS(=O)(=O)c2ccc(F)cc2)c1)C(=O)Nc1ccc(C)cc1,-14,2.46
O=C(N[C@H]1CCN(c2nnc(C3CCC3)o2)C1)OCc1ccccc1,2,-0.17
CCS(=O)(=O)Oc1cccc(CN(CC2CC2)C(C)=O)c1,0,-0.03
OCC1CCCCC1NCc1nc(C2CCCC2)no1 (stereo unspecified),1,-0.14
NC1=NC2(CCCCC2)N(c2ccccc2)C(N)=N1,11,-1.59
Cn1c(CN2CCCC2)nnc1[C@H]1CCCN(c2ncccc2Cl)C1,-13,1.7
CCc1oc(C(=O)Nc2ncccc2OCc2cccnc2)cc1C,-3,0.31
CCn1cc(CNC(=O)c2ccc3nc(-c4cccc(OC)c4)oc3c2)cn1,-23,1.99
Cc1ncoc1C(=O)N[C@H]1CC(=O)N(Cc2cccc3ccccc23)C1,-8,1.37
Cn1nncc1S(=O)(=O)NC1(Cc2cccc(F)c2)CCC1,-10,1.63
O=C(OC[C@H]1CCN(c2ccccc2)C1)c1ccc2n[nH]c(=O)n2c1,-9,1.44
N#CCC[C@H](NCC(F)(F)F)c1ccccc1,-8,0.7
Cc1ccc2oc(N(C)Cc3noc(C)n3)nc2c1,1,-0.11
COc1cc(=O)n(C)cc1C(=O)N1CCC(Oc2cccc3cccnc23)CC1,-9,1.72
Nc1cccc(-c2nnc3n2CCC3)c1,-15,2.12
Cc1ccc(-n2nc(C(=O)Nc3ccc(F)cc3)c(=O)n(Cc3ccc(C(F)(F)F)cc3)c2=O)cc1,-5,0.7
COc1cccc(C(=O)N(C)CCc2noc(-c3ccc(C(=O)N4CCCCC4)cc3)n2)c1,-14,1.29
CC1CN(C(=O)c2nc3cccnc3s2)CC(c2ccsc2)O1 (stereo unspecified),-14,1.4

Structure (SMILES),% Inhibition [%],Z score
Cc1ccoc1C(=O)N(CC1CCN(C2Cc3ccccc3C2)CC1)C[C@H]1CCCO1,2,-0.44
COc1ccc(OC)c(-c2cc(C(=O)NCc3cc(-c4cnccn4)nn3C)n(C)n2)c1,17,-2.17
O=C(O)[C@H]1CN(Cc2cccc3ncccc23)C[C@@H]1c1cccnc1,-11,2.2
CC[C@@H](CO)N(Cc1ccc(C)s1)C(=O)Cc1ccc2c(c1)OCO2,4,-0.49
Cc1cc(S(=O)(=O)N(C)C[C@H]2CCN(C)C2)c(F)cc1F,-4,0.37
C[C@@]1(O)CCN(C(=O)C2CCOCC2)[C@@H](c2ccccc2)[C@@H]1NC(=O)c1ccc(F)cc1,-7,1.08
Cc1nc(CN2C[C@H]3CN(C4CCCCC4)C[C@@]3(C(=O)O)C2)cs1,-4,0.68
COc1ccc([C@@H]2CCCN2Cc2cnc(OC)nc2C)nc1,-17,3.66
CC(C)OCCS(=O)(=O)N(C)Cc1cscn1,-6,0.91
CC[C@]1(C(=O)OC)N[C@@H](c2ccc(F)c(Cl)c2)[C@H]2C(=O)N(C)C(=O)[C@H]21,-9,0.81
COc1cc2c(cc1OC)[C@H](C)N(c1ncnc3onc(C)c13)CC2,-2,0.28
CC(NC(=O)C1COc2ccccc2O1)c1ccccn1 (stereo unspecified),6,-0.72
Cc1nc(N[C@H]2COC[C@@H]2O)ccc1Br,-10,1.17
Cc1cn2cc(C(=O)NCCn3nc(C(F)(F)F)cc3C)ccc2n1,-12,2.29
O=C(Nc1ccc(N2CCCC2=O)cc1)N[C@H]1CCOC1,4,-0.52
Cn1nc(-c2ccccn2)cc1NC(=O)N1CCN(C2CCCCC2)CC1,-9,1.13
O=C([C@H]1CC12CCNCC2)N(Cc1ccccc1)Cc1ccccc1,-9,0.89
O=C(c1noc2c1CCCC2)N1C[C@H]2COCC[C@@]2(O)[C@@H]2COCC[C@@H]21,-19,1.84
CCN(CC1CCOC1)C(=O)NCC(c1ccco1)N1CCCC1 (stereo unspecified),-5,0.53
O=C(NCC1=CCCC1)NC[C@@H]1C[C@H](c2ccccc2)CO1,-2,0.27
Cc1nnc(NC(=O)c2scnc2C2CC2)s1,1,-0.07

Structure (SMILES),% Inhibition [%],Z score
Cc1cc(C)cc(NC(=O)c2scc(-c3cccc(F)c3)c2S(=O)(=O)N(C)c2ccccc2)c1,-5,0.89
C[C@@H](CN(C)c1ccnc(Cc2ccccc2)n1)C(=O)O,-2,0.3
CC(=O)NC(C)(C)C(=O)N1CC[C@@]2(CCCN(C3CCCCC3)C2=O)C1,7,-1.22
CCc1nnc(CN(C(=O)c2nn3cc(C)cnc3c2Cl)C(C)C)o1,-10,0.94
O=C(NC(c1ccccc1)c1ccccc1)c1cc2n(n1)C[C@@H](O)CNC2=O,-13,2.48
Nc1c(-c2ccc(Cl)cc2)cnc2c(-c3ccccc3)c(COc3ccccc3)nn12,-5,0.85
COc1ccc(N2CCN(C3=NC(=O)[C@@H](C#N)C4(CCCCC4)N3)CC2)cc1,6,-0.78
CCOc1ccc(N(C)CC(=O)NC[C@H]2CCCO2)cc1,1,-0.08
O=C(NCC1CCN(C(=O)c2ccoc2)CC1)c1cccc(Cl)c1,-8,1.18
Cc1nc2c(c(N3CCCC3)n1)CCN(C(=O)Cc1csc(C)n1)C2,-19,1.71
CC(C)(C)NC(=O)COc1ccnc(C(F)(F)F)n1,-2,0.28
Cc1cccnc1[C@H](C1CC1)n1cnc2cn(C)nc2c1=O,-13,2.48
Cc1nc(N2CCNC(=O)C2)nc2cc(S(C)(=O)=O)ccc12,-6,0.98
CCCc1nnsc1C(=O)N[C@H]1CC[C@H](Oc2cnccn2)CC1,9,-0.98
Cc1ccn(CC(=O)N2CC(F)(F)C[C@H]2Cn2cc(C(=O)NCc3ccccc3)nn2)n1,34,-3.87
O=C(c1cc(-c2ccco2)[nH]n1)N1CCC2(C1)OCCO2,-10,1.81
COc1ccc(C(=O)N(CC2CC2)C2CC2)nn1,-15,1.33
Cc1ncccc1CNc1ccc(F)c(N2CCS(=O)(=O)CC2)c1,-10,1.3
CC(C)CN(C)C(=O)[C@@H]1CN(c2ncnc3ccsc23)CCO1,19,-2.59
O=C(Nc1ccccc1F)N1CC(F)(F)C[C@H]1CN1CCCCCC1,-10,1.79
